The nature of one data set: in vitro. The conditions noted are these: human.
Another data set concerns HCV subgenomic replicon. As to the kind of experiment: microbe, parasite or virus in culture. The settings on record: Hepatitis C virus, Huh-5-2, read-out: EC50 HCV subgenomic replicon replication.
The subject of a further data set is Herpesviruses. As to the kind of experiment: organism not typed. Format: cell-based. The settings on record: read-out: EC50 against Herpesviruses.
In data set [1] the test system is primary human keratinocytes.
The mark [2] stands for this setting: CC50, growing RPTEC #4, 7 days, Medium refreshing.
The mark [3] stands for this setting: CC50, growing RPTEC #4, 7 days, No medium refreshing.
Where [4] appears, read: CC50, resting RPTEC #4, 16 days.

Each structure is given as a SMILES string. Converted amounts (≈) assume the structure as drawn. Read-outs that look alike come from different tables or passages of the source. Some results are limits rather than exact numbers.

In the case of `NC(N)=NC(=O)NC[C@@H](CO)OCP(=O)(O)O` [Compound 10, 2-{[(2S)-3-Hydroxy-2-(Phosphonomethoxy)propyl]carbamoyl}guanidine], the CC50 is > 50 µg/mL in “in vitro” (setting [2]); > 50 µg/mL in “in vitro” (setting [3]); > 200 µg/mL in the data set “in vitro” (CC50, growing RPTEC #6, 5 days); > 200 µg/mL in the data set “in vitro” (CC50, growing RPTEC #6, 6 days); > 200 µg/mL in the data set “in vitro” (CC50, growing RPTEC #6, 7 days); > 200 µg/mL in “in vitro” (CC50, growing RPTEC #6, 8 days). For the same molecule, the CC50 in the data set “in vitro” (setting [4]) is > 50 µg/mL; in “in vitro” (CC50, resting RPTEC #7, 5 days), > 200 µg/mL; in “in vitro” (CC50, resting RPTEC #7, 7 days) it was > 200 µg/mL.
Consider `CCCCCCCCCCCCCCCCCCOP1(=O)CO[C@@H](Cn2cnc(N)nc2=O)CO1` (stereo partly drawn) [Compound 15, octadecyl ester of 1-{[(5S)-2-hydroxy-2-oxido-1,4,2-dioxaphosphinan-5-yl]methyl}-5-azacytosine], for which the “Cytotoxicity Cell morphology (MCC) HEL cells” value (“Cytotoxicity Cell morphology” below) in the data set with HEL cells (human) was “≧100”.
What is called EC50 is the concentration at which the effect is half-maximal. As for `NC1=NC(=O)N(C[C@@H](CO)OCP(=O)(O)O)CN1` [5,6-dihydro derivative of HPMP-5-azaC, (S)-1-[3-Hydroxy-2-(phosphonomethoxy)propyl]-5,6-dihydro-5-azacytosine], the EC50 with HCV subgenomic replicon is 24 µg/mL (≈ 85 µM); with Herpesviruses, 3 to 12 µg/mL (≈ 10.6 to 42.5 µM).
On to `Nc1ncn(C[C@H]2COP(=O)(O)CO2)c(=O)n1` [Compound 11, 1-{[(5S)-2-Hydroxy-2-oxido-1,4,2-dioxaphosphinan-5-yl]methyl}-5-azacytosine], for which, in the data set with HEL cells (human), the “Cytotoxicity Cell morphology” value was >100 and the “Cytotoxicity Morphology (MCC)” value is >100 μg/ml.
For `NC(=NC(=O)NC[C@@H](CO)OCP(=O)(O)O)NC=O.[Na]` [Compound 3a, Sodium 3-formyl-2-{[(2S)-3-hydroxy-2-(phosphono-methoxy)propyl]carbamoyl}guanidine], in the data set with HEL cells (Table 1, HEL cells), the “Cytotoxicity Cell morphology” value is given as 100. Also, in the data set on HEL cells (Table 2, HEL cells), the “Cytotoxicity Morphology (MCC)” value is >100 μg/ml. Further, the CC50 at 7 days in the data set “in vitro” (CC50, growing RPTEC #4, 7 days, Medium refreshing, growing RPTEC #4, 7 days of incubation) is > 50 µg/mL; in “in vitro” (CC50, growing RPTEC #4, 7 days, No medium refreshing, growing RPTEC #4, 7 days of incubation) it was > 50 µg/mL; in the data set “in vitro” (CC50, growing RPTEC #6, 7 days, Table 11 D, growing RPTEC #6, 7 days, without medium refreshing) it was > 200 µg/mL; in the data set “in vitro” (CC50, resting RPTEC #7, 7 days, Table 11 E, resting RPTEC #7, column head 7 days, without medium refreshing), > 200 µg/mL. For the same molecule, the CC50 at 5 days is > 200 µg/mL in “in vitro” (CC50, growing RPTEC #6, 5 days, Table 11 D, growing RPTEC #6, 5 days, without medium refreshing) and > 200 µg/mL in “in vitro” (CC50, resting RPTEC #7, 5 days, Table 11 E, resting RPTEC #7, column head 5 days, without medium refreshing). Further, the CC50 at 6 days in the data set “in vitro” (CC50, growing RPTEC #6, 6 days, Table 11 C, growing RPTEC #6, 6 days, without medium refreshing) is > 200 µg/mL. For the same molecule, the CC50 at 8 days in the data set “in vitro” (CC50, growing RPTEC #6, 8 days, Table 11 C, growing RPTEC #6, 8 days, without medium refreshing) was > 200 µg/mL. Further, the CC50 at 16 days in the data set “in vitro” (CC50, resting RPTEC #4, 16 days, resting RPTEC #4, 16 days of incubation without medium refreshing) was > 50 µg/mL.
In turn, `Nc1ccn(C[C@@H](CO)OCP(=O)(O)O)c(=O)n1` [HPMPC, (S)-1-(3-hydroxy-2-phosphonylmethoxypropyl)cytosine, reference compound] yielded an MCC in data set [1] of 50 µg/mL. For the same molecule, the “Cytotoxicity Cell morphology” value in the data set on HEL cells (human) turned out to be 400. Also, the “Cytotoxicity Morphology (MCC)” value with HEL cells (human) is >100 μg/ml. Moreover, the CC50 worked out at 45.9 µg/mL (≈ 165 µM) in the data set “in vitro” (setting [2]); 44.2 µg/mL (≈ 158 µM) in the data set “in vitro” (setting [3]); 42.2 µg/mL (≈ 151 µM) in “in vitro” (CC50, growing RPTEC #6, 5 days); 42.2 µg/mL (≈ 151 µM) in the data set “in vitro” (CC50, growing RPTEC #6, 6 days); 55.6 µg/mL (≈ 199 µM) in “in vitro” (CC50, growing RPTEC #6, 7 days); 14.2 µg/mL (≈ 50.9 µM) in the data set “in vitro” (CC50, growing RPTEC #6, 8 days). Also, the CC50 in the data set “in vitro” (setting [4]) worked out at 12.7 µg/mL (≈ 45.5 µM); in the data set “in vitro” (CC50, resting RPTEC #7, 5 days), 94.6 µg/mL (≈ 339 µM); in the data set “in vitro” (CC50, resting RPTEC #7, 7 days), 86.8 µg/mL (≈ 311 µM).
In data set [1], `Nc1ncn(C[C@@H](CO)OCP(=O)(O)O)c(=O)n1` [Compound 3, (S)-1-[3-hydroxy-2-(Phosphonomethoxy)propyl]-5-azacytosine] showed an MCC of 50 µg/mL. Besides, the “Cytotoxicity Cell morphology” value in the data set on HEL cells (human) was >50. Besides, in the data set on HEL cells (human), the “Cytotoxicity Morphology (MCC)” value is recorded as >100 μg/ml. Also, the CC50 in the data set “in vitro” (setting [2]) was > 50 µg/mL; in the data set “in vitro” (setting [3]), > 50 µg/mL; in the data set “in vitro” (CC50, growing RPTEC #6, 5 days) it was ≥ 200 µg/mL; in the data set “in vitro” (CC50, growing RPTEC #6, 6 days) it was ≥ 200 µg/mL; in “in vitro” (CC50, growing RPTEC #6, 7 days), 136 µg/mL (≈ 485 µM); in “in vitro” (CC50, growing RPTEC #6, 8 days), 149 µg/mL (≈ 533 µM). For the same molecule, the CC50 is > 50 µg/mL in “in vitro” (setting [4]); ≥ 200 µg/mL in the data set “in vitro” (CC50, resting RPTEC #7, 5 days); ≥ 200 µg/mL in “in vitro” (CC50, resting RPTEC #7, 7 days).
With `Nc1nc2c(ncn2COCCO)c(=O)[nH]1` [Acyclovir, reference compound], the “Cytotoxicity Morphology (MCC)” value in the data set on HEL cells (Table 4, HEL cells) is >100 μg/ml.
`CCCCCCCCCCCCCCCCOCCOP1(=O)CO[C@@H](Cn2cnc(N)nc2=O)CO1` (stereo partly drawn) [Compound 12, hexadecyloxyethyl ester of 1-{[(5S)-2-Hydroxy-2-oxido-1,4,2-dioxaphosphinan-5-yl]methyl}-5-azacytosine]: the “Cytotoxicity Cell morphology” value with HEL cells (human) is reported as >5.
Turning to `Nc1cnn(C[C@@H](CO)OCP(=O)(O)O)c(=O)n1` [HPMP-6-azaC analogue, (S)-1-[3-hydroxy-2-(phosphonomethoxy)propyl]-6-azacytosine], in the data set on HEL cells (human), the “Cytotoxicity Cell morphology” value was >100 and the “Cytotoxicity Morphology (MCC)” value is >100 μg/ml.

Source of the values: patent US8153787B2 (priority 2005, dated 2012).
